# Test results from the supplement of paper PMC8728848.
# This is one part of the list.
# Assays:
# Assay in all cases: glycan array binding signal (z-score within array); higher = stronger binding
# Conditions in all cases: glycan notation: IUPAC condensed, linker removed
# Gal(a1-3)Gal = target: Gal(a1-3)Gal
# How it was run: (§1)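 Negative Z-scores can be read as non-binding. The Z-score is calculated within each array and then averaged across arrays of one protein sequence at different concentrations or buffers and across linkers. Arrays, 3228 in all, were curated from the Consortium for Functional Glycomics database and kept only where the protein sequence was available.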
# Gal(a1-3)Gal(b1-3)GlcNAc = target: Gal(a1-3)Gal(b1-3)GlcNAc
# How it was run: as §1
# [1] = target: Gal(a1-3)Gal(b1-3)GlcNAc(b1-2)Man(a1-3)[Gal(a1-3)Gal(b1-3)GlcNAc(b1-2)Man(a1-6)]Man(b1-4)GlcNAc(b1-4)GlcNAc
# How it was run: as §1
# [2] = target: Gal(a1-3)Gal(b1-3)GlcNAc(b1-3)GalNAc
# How it was run: as §1
# [3] = target: Gal(a1-3)Gal(b1-3)[Fuc(a1-4)]GlcNAc(b1-2)Man(a1-3)[Gal(a1-3)Gal(b1-3)[Fuc(a1-4)]GlcNAc(b1-2)Man(a1-6)]Man(b1-4)GlcNAc(b1-4)GlcNAc
# How it was run: as §1
# Gal(a1-3)Gal(b1-4)Glc = target: Gal(a1-3)Gal(b1-4)Glc
# How it was run: as §1
# Gal(a1-3)Gal(b1-4)GlcNAc = target: Gal(a1-3)Gal(b1-4)GlcNAc
# How it was run: as §1
# [4] = target: Gal(a1-3)Gal(b1-4)GlcNAc(b1-3)GalNAc
# How it was run: as §1
# [5] = target: Gal(a1-3)Gal(b1-4)[Fuc(a1-3)]GlcNAc
# How it was run: as §1
# [6] = target: Gal(a1-3)Gal(b1-4)[Fuc(a1-3)]GlcNAc(b1-2)Man(a1-3)[Gal(a1-3)Gal(b1-4)[Fuc(a1-3)]GlcNAc(b1-2)Man(a1-6)]Man(b1-4)GlcNAc(b1-4)GlcNAc
# How it was run: as §1
# Gal(a1-3)GalNAc = target: Gal(a1-3)GalNAc
# How it was run: as §1
# [7] = target: Gal(a1-3)[Gal(a1-4)]Gal(b1-4)GlcNAc
# How it was run: as §1
# [8] = target: Gal(a1-4)Gal(b1-3)GlcNAc(b1-2)Man(a1-3)[Gal(a1-4)Gal(b1-3)GlcNAc(b1-2)Man(a1-6)]Man(b1-4)GlcNAc(b1-4)GlcNAc
# How it was run: as §1
# Gal(a1-4)Gal(b1-4)Glc = target: Gal(a1-4)Gal(b1-4)Glc
# How it was run: as §1
# Gal(a1-4)Gal(b1-4)GlcNAc = target: Gal(a1-4)Gal(b1-4)GlcNAc
# How it was run: as §1
# [9] = target: Gal(a1-4)Gal(b1-4)GlcNAc(b1-2)Man(a1-3)[Gal(a1-4)Gal(b1-4)GlcNAc(b1-2)Man(a1-6)]Man(b1-4)GlcNAc(b1-4)GlcNAc
# How it was run: as §1
# [10] = target: Gal(a1-4)Gal(b1-4)GlcNAc(b1-3)Gal(b1-4)Glc
# How it was run: as §1
# Gal(a1-4)GlcNAc = target: Gal(a1-4)GlcNAc
# How it was run: as §1
# Gal(a1-6)Glc = target: Gal(a1-6)Glc
# How it was run: as §1
# Gal(b1-2)Gal = target: Gal(b1-2)Gal
# How it was run: as §1
# Gal(b1-3)Gal = target: Gal(b1-3)Gal
# How it was run: as §1
# Gal(b1-3)Gal(b1-4)GlcNAc = target: Gal(b1-3)Gal(b1-4)GlcNAc
# How it was run: as §1
# [11] = target: Gal(b1-3)Gal(b1-4)GlcNAc(b1-2)Man(a1-3)[Gal(b1-3)Gal(b1-4)GlcNAc(b1-2)Man(a1-6)]Man(b1-4)GlcNAc(b1-4)GlcNAc
# How it was run: as §1
# Gal(b1-3)GalNAc = target: Gal(b1-3)GalNAc
# How it was run: as §1
# [12] = target: Gal(b1-3)GalNAc(a1-3)[Fuc(a1-2)]Gal(b1-4)Glc
# How it was run: as §1
# [13] = target: Gal(b1-3)GalNAc(a1-3)[Fuc(a1-2)]Gal(b1-4)GlcNAc
# How it was run: as §1
# [14] = target: Gal(b1-3)GalNAc(b1-3)Gal(a1-4)Gal(b1-4)Glc
# How it was run: as §1
# [15] = target: Gal(b1-3)GalNAc(b1-4)Gal(b1-4)Glc
# How it was run: as §1
# [16] = target: Gal(b1-3)GalNAc(b1-4)[Neu5Ac(a2-3)]Gal(b1-4)Glc
# How it was run: as §1
# Gal(b1-3)GlcNAc = target: Gal(b1-3)GlcNAc
# How it was run: as §1
# [17] = target: Gal(b1-3)GlcNAc(a1-6)Gal(b1-4)GlcNAc
# How it was run: as §1
# [18] = target: Gal(b1-3)GlcNAc(b1-2)Man(a1-3)[Gal(b1-3)GlcNAc(b1-2)Man(a1-6)]Man(b1-4)GlcNAc(b1-4)GlcNAc
# How it was run: as §1
# [19] = target: Gal(b1-3)GlcNAc(b1-2)Man(a1-3)[Gal(b1-3)GlcNAc(b1-2)Man(a1-6)]Man(b1-4)GlcNAc(b1-4)[Fuc(a1-6)]GlcNAc
# How it was run: as §1
# [20] = target: Gal(b1-3)GlcNAc(b1-2)[Gal(b1-3)GlcNAc(b1-6)]Man(a1-6)[Gal(b1-3)GlcNAc(b1-2)Man(a1-3)]Man(b1-4)GlcNAc(b1-4)GlcNAc
# How it was run: as §1
# [21] = target: Gal(b1-3)GlcNAc(b1-3)Gal(b1-3)GlcNAc
# How it was run: as §1
# [22] = target: Gal(b1-3)GlcNAc(b1-3)Gal(b1-4)Glc
# How it was run: as §1
# [23] = target: Gal(b1-3)GlcNAc(b1-3)Gal(b1-4)GlcNAc
# How it was run: as §1
# [24] = target: Gal(b1-3)GlcNAc(b1-3)Gal(b1-4)GlcNAc(b1-6)[Gal(b1-3)GlcNAc(b1-3)]Gal(b1-4)Glc
# How it was run: as §1
# [25] = target: Gal(b1-3)GlcNAc(b1-3)Gal(b1-4)[Fuc(a1-3)]GlcNAc(b1-6)[Gal(b1-3)GlcNAc(b1-3)]Gal(b1-4)Glc
# How it was run: as §1
# [26] = target: Gal(b1-3)GlcNAc(b1-3)GalNAc
# How it was run: as §1
# [27] = target: Gal(b1-3)GlcNAc(b1-6)Gal(b1-4)GlcNAc
# How it was run: as §1
# [28] = target: Gal(b1-3)[Fuc(a1-4)]GlcNAc
# How it was run: as §1
# [29] = target: Gal(b1-3)[Fuc(a1-4)]GlcNAc(b1-2)Man(a1-3)[Gal(b1-3)[Fuc(a1-4)]GlcNAc(b1-2)Man(a1-6)]Man(b1-4)GlcNAc(b1-4)GlcNAc
# How it was run: as §1
# [30] = target: Gal(b1-3)[Fuc(a1-4)]GlcNAc(b1-2)Man(a1-3)[Gal(b1-3)[Fuc(a1-4)]GlcNAc(b1-2)Man(a1-6)]Man(b1-4)GlcNAc(b1-4)[Fuc(a1-6)]GlcNAc
# How it was run: as §1
# [31] = target: Gal(b1-3)[Fuc(a1-4)]GlcNAc(b1-3)Gal(b1-3)[Fuc(a1-4)]GlcNAc
# How it was run: as §1
binder,measurement,setting,value
"3FTT (Staphylococcus aureus), Q5HCZ5 (protein) MTEKEKMLAEKWYDANFDQYLINERARAKDICFELNHTRPSATNKRKELIDQLFQTTTDNVSISIPFDTDYGWNVKLGKNVYVNTNCYFMDGGQITIGDNVFIGPNCGFYTATHPLNFHHRNEGFEKAGPIHIGSNTWFGGHVAVLPGVTIGEGSVIGAGSVVTKDIPPHSLAVGNPCKVVRKIDNDLPSETLNDETIK",glycan array binding signal (z-score),Gal(a1-3)Gal,-0.201
same,glycan array binding signal (z-score),Gal(a1-3)Gal(b1-3)GlcNAc,-0.034
same,glycan array binding signal (z-score),[1],-0.061
same,glycan array binding signal (z-score),[2],-0.02
same,glycan array binding signal (z-score),[3],0.2
same,glycan array binding signal (z-score),Gal(a1-3)Gal(b1-4)Glc,-0.167
same,glycan array binding signal (z-score),Gal(a1-3)Gal(b1-4)GlcNAc,-0.14
same,glycan array binding signal (z-score),[4],-0.01
same,glycan array binding signal (z-score),[5],0.149
same,glycan array binding signal (z-score),[6],-0.072
same,glycan array binding signal (z-score),Gal(a1-3)GalNAc,-0.084
same,glycan array binding signal (z-score),[7],0.189
same,glycan array binding signal (z-score),[8],-0.237
same,glycan array binding signal (z-score),Gal(a1-4)Gal(b1-4)Glc,-0.171
same,glycan array binding signal (z-score),Gal(a1-4)Gal(b1-4)GlcNAc,-0.263
same,glycan array binding signal (z-score),[9],0.058
same,glycan array binding signal (z-score),[10],0.067
same,glycan array binding signal (z-score),Gal(a1-4)GlcNAc,0.402
same,glycan array binding signal (z-score),Gal(a1-6)Glc,-0.157
same,glycan array binding signal (z-score),Gal(b1-2)Gal,-0.174
same,glycan array binding signal (z-score),Gal(b1-3)Gal,0.066
same,glycan array binding signal (z-score),Gal(b1-3)Gal(b1-4)GlcNAc,0.256
same,glycan array binding signal (z-score),[11],-0.226
same,glycan array binding signal (z-score),Gal(b1-3)GalNAc,-0.105
same,glycan array binding signal (z-score),[12],-0.232
same,glycan array binding signal (z-score),[13],-0.118
same,glycan array binding signal (z-score),[14],-0.376
same,glycan array binding signal (z-score),[15],-0.104
same,glycan array binding signal (z-score),[16],-0.185
same,glycan array binding signal (z-score),Gal(b1-3)GlcNAc,-0.004
same,glycan array binding signal (z-score),[17],-0.16
same,glycan array binding signal (z-score),[18],-0.031
same,glycan array binding signal (z-score),[19],-0.172
same,glycan array binding signal (z-score),[20],-0.229
same,glycan array binding signal (z-score),[21],0.098
same,glycan array binding signal (z-score),[22],-0.018
same,glycan array binding signal (z-score),[23],-0.002
same,glycan array binding signal (z-score),[24],-0.054
same,glycan array binding signal (z-score),[25],-0.201
same,glycan array binding signal (z-score),[26],-0.014
same,glycan array binding signal (z-score),[27],-0.087
same,glycan array binding signal (z-score),[28],-0.131
same,glycan array binding signal (z-score),[29],19.9
same,glycan array binding signal (z-score),[30],-0.148
same,glycan array binding signal (z-score),[31],0.019
